The results in this text go back to the BET-seq Pho4 binding data (Le et al. 2018).

This is one part of the list. The energies were worked out here from pooled read counts, against the library average; single values are noisy.

This assay concerns the target T1, Pho4 (S. cerevisiae) (UniProt P07270).
T1 sequence: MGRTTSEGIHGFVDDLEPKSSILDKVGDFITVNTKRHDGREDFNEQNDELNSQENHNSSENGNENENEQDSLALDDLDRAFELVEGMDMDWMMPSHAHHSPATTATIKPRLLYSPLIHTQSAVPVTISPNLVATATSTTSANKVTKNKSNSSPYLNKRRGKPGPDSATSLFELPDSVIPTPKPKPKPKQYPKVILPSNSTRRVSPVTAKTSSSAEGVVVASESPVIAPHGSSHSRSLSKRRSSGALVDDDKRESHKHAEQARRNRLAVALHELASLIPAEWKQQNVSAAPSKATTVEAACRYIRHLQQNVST
Put plainly: relative binding free energy (BET-seq); higher = weaker binding. The settings on record: reference: library average.
For CAATTCACGTGTTGTG, the “relative binding free energy” value amounted to 0.837 kJ/mol.
As for TTTTTCACGTGGGTAC, the “relative binding free energy” value was determined as 0.586 kJ/mol.
On to AAGTACACGTGGGTTA, for which the “relative binding free energy” value is 0.251 kJ/mol.
For the sequence AATGTCACGTGGGTGG, the “relative binding free energy” value was found to be 0.126 kJ/mol.
For GGTGGCACGTGCTGTA, the “relative binding free energy” value was -0.167 kJ/mol.
Regarding TAGCGCACGTGGGCGT, the “relative binding free energy” value is -1.3 kJ/mol.
For the sequence AATGACACGTGTCGGG, the “relative binding free energy” value came out at 0.544 kJ/mol.
Regarding TTGTACACGTGAGTAA, the “relative binding free energy” value stood at 1.17 kJ/mol.
Turning to AAGTTCACGTGGAGTT, the “relative binding free energy” value came out at 1.63 kJ/mol.
With GGGAGCACGTGAGGCA the figure was 0.293 kJ/mol; with CTAGTCACGTGTGGCA, 0.544 kJ/mol; with GGGTTCACGTGCGAGG, 1.46 kJ/mol.
In the case of CAGTGCACGTGTAGTA, the “relative binding free energy” value is 0.126 kJ/mol.
Take TACTTCACGTGGTGCT: the “relative binding free energy” value amounted to 0.753 kJ/mol.
As for TATGACACGTGAGGTA, the “relative binding free energy” value stood at 1.42 kJ/mol.
With TGAATCACGTGTAGGC the figure was 0.544 kJ/mol; with TTTCTCACGTGTGCGG, 1.21 kJ/mol; with AAGCGCACGTGTTGTG, -0.46 kJ/mol.
As for GGTTGCACGTGAATTA, the “relative binding free energy” value was determined as 0.92 kJ/mol.
With AGCGACACGTGGTTGA, the “relative binding free energy” value is 0.377 kJ/mol.
For AACTTCACGTGTTTGT, the “relative binding free energy” value was determined as 1.59 kJ/mol.
With GGTTTCACGTGTTCGC the figure was 1.26 kJ/mol.
For AAAGGCACGTGTTTTG, the “relative binding free energy” value was found to be 0.251 kJ/mol.
In the case of GCGTTCACGTGGGGCA, the “relative binding free energy” value turned out to be 1.17 kJ/mol.
Turning to ACCTTCACGTGTGGTG, the “relative binding free energy” value was found to be 1.21 kJ/mol.
With TGTCGCACGTGATTTA the figure was 0 kJ/mol.
Consider GGTTGCACGTGGGTCG, for which the “relative binding free energy” value was -0.335 kJ/mol.
Turning to CGGAACACGTGGAGTA, the “relative binding free energy” value is 0.586 kJ/mol.
With GAAAGCACGTGAGTGG the figure was 1.17 kJ/mol; with TTATACACGTGGTATC, 0.0837 kJ/mol; with GATGGCACGTGTTCAG, -0.251 kJ/mol.
In the case of TGTCTCACGTGAGGGT, the “relative binding free energy” value turned out to be 1.3 kJ/mol.
As to GGAGTCACGTGAGATG, the “relative binding free energy” value turned out to be 1.17 kJ/mol.
With GGGAGCACGTGTGTAT the figure was 0.0837 kJ/mol; with AGCGTCACGTGGCTGG, -0.335 kJ/mol.
Take GGCGTCACGTGGGGAG: the “relative binding free energy” value was found to be 0.0837 kJ/mol.
As to TCTGGCACGTGTGGCT, the “relative binding free energy” value was -0.251 kJ/mol.
For the sequence ATGTGCACGTGCGTTG, the “relative binding free energy” value was -0.879 kJ/mol.
Turning to GTTTGCACGTGGATGG, the “relative binding free energy” value was found to be 0.377 kJ/mol.
With TAGGGCACGTGAAGGG, the “relative binding free energy” value amounted to 0.544 kJ/mol.
As for GGCTACACGTGGCGGT, the “relative binding free energy” value came out at 1.26 kJ/mol.
For GGGTTCACGTGAATTA, the “relative binding free energy” value came to 1.09 kJ/mol.
As to AGTGGCACGTGTGAAC, the “relative binding free energy” value came out at 0.126 kJ/mol.
As for GCTCTCACGTGGCGGG, the “relative binding free energy” value worked out at 1.59 kJ/mol.
The value for TGGGACACGTGGAGGC was 0.209 kJ/mol; that for GGGGCCACGTGAAGTG was 0.0837 kJ/mol.
Turning to GGTTCCACGTGGTGGA, the “relative binding free energy” value amounted to 0 kJ/mol.
On to CGTGGCACGTGATTAG, for which the “relative binding free energy” value is 0.126 kJ/mol.
For the sequence GAGTGCACGTGTAGGC, the “relative binding free energy” value was 0.126 kJ/mol.
On to TTTTGCACGTGGGATC, for which the “relative binding free energy” value was -0.418 kJ/mol.
On to ATTAACACGTGGTGTT, for which the “relative binding free energy” value is -0.251 kJ/mol.
TGCGGCACGTGTGAGA: the “relative binding free energy” value was -0.251 kJ/mol.
ATAGTCACGTGATCGT: the “relative binding free energy” value was determined as 0.377 kJ/mol.
Take GGTGGCACGTGCGATT: the “relative binding free energy” value was -0.167 kJ/mol.
AGTGACACGTGAGGTG: the “relative binding free energy” value came out at 0.502 kJ/mol.
With GAGGCCACGTGGGTTT the figure was -0.92 kJ/mol; with GCAGGCACGTGTGAGT, 0.293 kJ/mol; with GGATGCACGTGTTGTC, -0.209 kJ/mol.
Regarding CGTAGCACGTGTATAG, the “relative binding free energy” value was -0.377 kJ/mol.
Regarding TTAGTCACGTGGCTTT, the “relative binding free energy” value is -0.251 kJ/mol.
Turning to TTCATCACGTGGTGAG, the “relative binding free energy” value was found to be 0.711 kJ/mol.
GACGTCACGTGTTTGT: the “relative binding free energy” value was found to be 0.46 kJ/mol.
The value for TATCGCACGTGAGTAT was 0.335 kJ/mol.
The value for AGCCTCACGTGGGGTT was 0.251 kJ/mol; that for AAGTACACGTGTGTAG was -0.167 kJ/mol; that for GGTGGCACGTGGCGGA was -0.293 kJ/mol.
For AGTCTCACGTGTGGTC, the “relative binding free energy” value was 1.05 kJ/mol.
For ACTGACACGTGGGGGT, the “relative binding free energy” value is -0.711 kJ/mol.
Consider TTAGACACGTGGCAGG, for which the “relative binding free energy” value was -0.167 kJ/mol.
On to AGTGACACGTGGACGT, for which the “relative binding free energy” value turned out to be 0.418 kJ/mol.
GTAATCACGTGGAGTG: the “relative binding free energy” value turned out to be 0.628 kJ/mol.
As to CTGATCACGTGGGTAG, the “relative binding free energy” value stood at 0.209 kJ/mol.
Consider AAGAGCACGTGGGAGT, for which the “relative binding free energy” value was -0.837 kJ/mol.
With CGTTACACGTGGAGTT the figure was 1.09 kJ/mol; with TACGGCACGTGCGCGG, -0.586 kJ/mol; with ATTTTCACGTGTCTGC, 1.34 kJ/mol.
Consider TCTGGCACGTGGGTGT, for which the “relative binding free energy” value is -0.669 kJ/mol.
As to GTGTACACGTGTTTTA, the “relative binding free energy” value came out at 0.669 kJ/mol.
The value for AGTCGCACGTGACGGT was 0.126 kJ/mol; that for AAGTTCACGTGTTTAA was 1.21 kJ/mol.
Take GTTTGCACGTGTGTTT: the “relative binding free energy” value came out at 0.628 kJ/mol.
As to TTGAGCACGTGATGCG, the “relative binding free energy” value came to 0 kJ/mol.
As to CCAGGCACGTGAAGGG, the “relative binding free energy” value came out at 0.879 kJ/mol.
With GGGCGCACGTGTGCAG the figure was -0.711 kJ/mol; with TTAAACACGTGGATTG, -0.251 kJ/mol.
Turning to TTTGGCACGTGATAAG, the “relative binding free energy” value was 0 kJ/mol.
In the case of GTTCACACGTGGGCAG, the “relative binding free energy” value came to 0.418 kJ/mol.
In the case of TATTGCACGTGATTGC, the “relative binding free energy” value was -0.251 kJ/mol.
Regarding TTTAGCACGTGTCAGA, the “relative binding free energy” value was -0.209 kJ/mol.
Regarding AGTGCCACGTGGTTTG, the “relative binding free energy” value was -0.837 kJ/mol.
As for TAGGTCACGTGGGCGA, the “relative binding free energy” value was found to be 0 kJ/mol.
Take ATTGGCACGTGAGGAG: the “relative binding free energy” value worked out at 0.418 kJ/mol.
With TGGGGCACGTGTCACG the figure was -0.795 kJ/mol.
Turning to TCTAACACGTGGTGTA, the “relative binding free energy” value stood at 0 kJ/mol.
In the case of TAAGTCACGTGTATAT, the “relative binding free energy” value worked out at 0.586 kJ/mol.
Turning to TGGTGCACGTGTGTTA, the “relative binding free energy” value amounted to 0.209 kJ/mol.
With TATGGCACGTGTTGCG, the “relative binding free energy” value is -0.251 kJ/mol.
Regarding TGCATCACGTGGATGG, the “relative binding free energy” value turned out to be 0.377 kJ/mol.
As to AGTATCACGTGGGACG, the “relative binding free energy” value was -0.209 kJ/mol.
The value for GTTTTCACGTGCACGT was 0.962 kJ/mol.
Regarding GTAAGCACGTGAGTTA, the “relative binding free energy” value is 0.837 kJ/mol.
In the case of AGGTCCACGTGAGGGG, the “relative binding free energy” value was found to be 1 kJ/mol.
For the sequence GTAGTCACGTGGCTTA, the “relative binding free energy” value was 0.126 kJ/mol.
Take AGATGCACGTGGTAGG: the “relative binding free energy” value was -0.0418 kJ/mol.
As to AAAGGCACGTGGGGGC, the “relative binding free energy” value is -0.879 kJ/mol.
Regarding CTAGGCACGTGGGTTT, the “relative binding free energy” value is -1.05 kJ/mol.
The value for TTGGGCACGTGCCGGG was -0.586 kJ/mol; that for TTGGGCACGTGCGTAG was -0.418 kJ/mol; that for CGAGTCACGTGTGAAG was 0.628 kJ/mol.
Regarding GGTGACACGTGGGGTC, the “relative binding free energy” value was -0.0837 kJ/mol.
As for GGTGGCACGTGAAGAC, the “relative binding free energy” value stood at 1.13 kJ/mol.
ACAAGCACGTGTTTTT: the “relative binding free energy” value is -0.0418 kJ/mol.
As for AATTGCACGTGGGTGT, the “relative binding free energy” value is -0.837 kJ/mol.
On to ATTGGCACGTGCGGGT, for which the “relative binding free energy” value was -1.17 kJ/mol.
For AAGGTCACGTGCTGTA, the “relative binding free energy” value stood at 0.293 kJ/mol.
For the sequence CGTGACACGTGCGTTT, the “relative binding free energy” value amounted to 0.0837 kJ/mol.
The value for TACGGCACGTGTGTGA was -0.335 kJ/mol; that for TGTAACACGTGATTCT was 1.17 kJ/mol; that for GTTTACACGTGGGTTC was 0.0418 kJ/mol.
As for ATTGTCACGTGGTATT, the “relative binding free energy” value worked out at 0.0837 kJ/mol.
For AGTGTCACGTGCTAGG, the “relative binding free energy” value is -0.209 kJ/mol.
Turning to GGGGACACGTGGGTCG, the “relative binding free energy” value was -0.167 kJ/mol.
Turning to TTGAGCACGTGCTTTT, the “relative binding free energy” value was -1.09 kJ/mol.
In the case of GTCATCACGTGGTGTG, the “relative binding free energy” value was 0.209 kJ/mol.
On to TTACTCACGTGGGAGT, for which the “relative binding free energy” value was 0.377 kJ/mol.
With AGATGCACGTGTATTT the figure was 0.502 kJ/mol; with AGTTACACGTGGTCAG, -0.209 kJ/mol.
For ATAGTCACGTGTAAGA, the “relative binding free energy” value was 0.544 kJ/mol.
Turning to GATGACACGTGGTCGG, the “relative binding free energy” value is -0.377 kJ/mol.
The value for GTTTGCACGTGAAGCG was 1.38 kJ/mol; that for TATGGCACGTGAGTTA was 0.502 kJ/mol; that for ATAATCACGTGAGTGC was 1.55 kJ/mol.
For the sequence TGTGTCACGTGGCACT, the “relative binding free energy” value was 0.0837 kJ/mol.
With GGTAACACGTGTTCGA the figure was 0.711 kJ/mol; with ACGTTCACGTGAGATG, 1.67 kJ/mol.
With ACGTACACGTGAGTGG, the “relative binding free energy” value is 1.46 kJ/mol.
For the sequence CATCTCACGTGGGGCG, the “relative binding free energy” value came out at 1.05 kJ/mol.
With TCAGGCACGTGGTGCG, the “relative binding free energy” value was -0.502 kJ/mol.
For TATGGCACGTGGTGGT, the “relative binding free energy” value was -0.502 kJ/mol.
As to GATACCACGTGTTGGG, the “relative binding free energy” value came out at 0.46 kJ/mol.
As to CTGGGCACGTGGTGTA, the “relative binding free energy” value was -0.544 kJ/mol.
With TGGTTCACGTGGTAGA the figure was 1.17 kJ/mol; with AAAGACACGTGATTGG, 0.837 kJ/mol.
For GGCTCCACGTGTTTGG, the “relative binding free energy” value turned out to be 0.837 kJ/mol.
Take GTATGCACGTGGTGAA: the “relative binding free energy” value is -0.209 kJ/mol.
With TGTGGCACGTGTAGGA, the “relative binding free energy” value is -0.209 kJ/mol.
